Laboratory results published in PubChem BioAssay AID485364 (National Center for Advancing Translational Sciences (NCATS), 2010).
Hit rate of the full screen: of about 360,000 compounds, about 11,000 (3.1%) were called active. Inconclusive means that the source gave no clear call. Such entries were picked first, then a sample of the others. Calls follow the shape of the dose curve; as a rule, active = well fitted inhibition curve with a large enough effect; inconclusive = small, poorly fitted or top-dose-only effect; inactive = no such curve, though single readings can be large or run the other way. Potencies of inconclusive entries are left out as doubtful fits.

Target: Schistosoma mansoni thioredoxin glutathione reductase (TGR) (UniProt Q962Y6)
Experiment: qHTS Assay for the Inhibitors of Schistosoma Mansoni Peroxiredoxins; also: nearly all actives have a fitted effect of over 60% in size
Details: purified TGR, DTNB reduction, TNB absorbance 405 nm; activity change, negative = inhibition: at 114 µM (top of the series) unless noted
Summary of the method: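 First, TGR (20 nM dispensed) and NADPH were mixed with compound. Second, a 15 min room-temperature incubation followed. Third, further NADPH and then DTNB were added to start the reaction. Finally, TNB absorbance was monitored kinetically.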
% is scaled to controls: 0 for no effect and ±100 for the full control effect; potency is read from the fitted curve at half-maximal effect; tags tell the direction and shape of the fitted curve.

SMILES | Potency | activity change, negative = inhibition
CCOc1cc(NC(=O)CCl)c(OCC)cc1NC(C)=O | active: 44.7 µM | 
COc1ccc(Br)cc1[C@H]1[C@H]2C=CC[C@@H](C)[C@@H]2C(=O)N1Cc1ccccc1 | inconclusive [inhibitor, partial curve] | 
COC(=O)[C@@H]1CC[C@H](C)[C@@H](c2ccc(C)cc2)N1C(=O)c1ccc(/C=N/OC[C@@H](O)COCc2ccco2)cc1 | inconclusive [inhibitor, partial curve] | 
CCOC(=O)C1=C(CN2CCN(C(=O)c3ccco3)CC2)NC(=O)NC1c1ccc(Cl)cc1 (stereo not drawn) |  | inactive: -5.23%
O=C(CC1Oc2ccc(Cl)cc2NC1=O)NCc1ccccc1 (stereo not drawn) |  | inactive: -12.8%
O=C1CC(N2CCN(Cc3ccccc3)CC2)C(=O)N1c1ccccc1 (stereo not drawn) | inconclusive [inhibitor, partial curve] | 
C/C=C\C=C/C(=O)Nc1cccc(C2=NOC3(C2)C[C@H](C(N)=O)N(C(=O)CC)C3)c1 (stereo partly drawn) | active: 1.78 µM | 
COc1cccc(/C=C/c2ccc3cccc(O)c3n2)c1OC |  | inactive: 0%
OCC1(Cc2ccccc2)CCN(Cc2ccc(-c3ccco3)cc2)CC1 | active: 31.6 µM | 
COc1cccc(CN(C)CC(=O)Nc2c(C)cccc2C(C)C)c1 |  | inactive: 1.1%
COc1ccc2nc(N3CCN(C(=O)C4CC4)CC3)sc2c1 |  | inactive: 2.77%
O=C(NCc1ccccc1)N(Cc1nc2ccccc2c(=O)[nH]1)C1CCCC1 | inconclusive [inhibitor, single point] | 
COc1ccc(C2CC(C(F)(F)F)n3ncc(C(=O)Nc4c(C)n(C)n(-c5ccccc5)c4=O)c3N2)cc1 (stereo not drawn) | inconclusive [inhibitor, full curve, poor fit] | 
CCc1ccc(S(=O)(=O)c2c(C(=O)c3ccc(C)c(C)c3)cnc3ccccc23)cc1 | inconclusive [inhibitor, single point] | 
CCn1c(=O)cc(OCC(=O)Nc2cc(OC)c(OC)c(OC)c2)c2ccccc21 | inconclusive [inhibitor, single point] | 
CCn1c(COc2c(C)cccc2C)nnc1SCC(=O)N1CCN(c2ccccc2)CC1 | inconclusive [inhibitor, full curve, poor fit] | 
Cc1cccc(NC(=S)NC(=O)Cc2ccccc2)c1C | inconclusive [inhibitor, partial curve] | 
CCOC(=O)Cc1csc(NC(=O)c2ccc(S(=O)(=O)N3CCCCC3)cc2)n1 |  | inactive: 0.4%
CCCCCN(C(=O)COC(=O)CSc1ccc([N+](=O)[O-])cc1)c1c(N)n(CCCC)c(=O)[nH]c1=O |  | inactive: 0.696%
O=C(O)C1C(c2ccccc2)C(C(=O)OCc2ccco2)C1c1ccccc1 (stereo not drawn) | inconclusive [inhibitor, single point] | 
Cc1ccc(N(Cc2ccccc2)C(=O)c2cccc(F)c2)cc1 | inconclusive [inhibitor, full curve, poor fit] | 
CC(=O)NC12CC3CC(C1)CC(C(=O)N(C)CC(=O)Nc1ccc(F)c(F)c1F)(C3)C2 |  | inactive: -24%

SMILES | Potency | activity change, negative = inhibition
Cc1ccc2nc(N3C(=O)C(O)=C(C(=O)c4cc5ccccc5o4)C3c3cccs3)sc2c1 (stereo not drawn) | inconclusive [inhibitor, partial curve] | 
O=C(COC(=O)CSc1ccc([N+](=O)[O-])cc1)NCC1CCCO1 (stereo not drawn) | inconclusive [inhibitor, partial curve] | 
COc1ccc2oc(C(=O)OCC(=O)N3CC(C)CC(C)C3)c(C)c2c1 (stereo not drawn) | inconclusive [inhibitor, partial curve] | 
CS(=O)(=O)c1nc(S(=O)(=O)c2ccc(Cl)cc2)c(NCCN2CCOCC2)s1 | inconclusive [inhibitor, partial curve] | 
O=C(O)CCc1ccc(-c2cccs2)n1CC1CCCO1 (stereo not drawn) | active: 8.91 µM | 
N#Cc1c(-c2ccco2)nc(SCC(=O)Nc2cccc(Cl)c2)[nH]c1=O | inconclusive [inhibitor, full curve, poor fit] | 
CCN=C1NN=C(c2cc(C)n(CCc3ccccc3)c2C)CS1 | inconclusive [inhibitor, partial curve] | 
COC(=O)c1sc(-c2cccs2)cc1N |  | inactive: 7.15%
Cc1n[nH]c(=O)c2c(NC(=O)CSc3nncn3C(C)C)oc(C)c12 | inconclusive [inhibitor, full curve, poor fit] | 
O=C(Nc1ccccc1C(=O)O)c1cccc(NS(=O)(=O)c2ccc(Br)cc2)c1 |  | inactive: -6.76%
O=C(O)c1cc(N/N=C/c2ccc(N3CCOCC3)cc2)ccc1Cl | inconclusive [inhibitor, partial curve] | 
CCN(CC)C(=O)CSc1nnc2nnc3cc(OC)ccc3n12 | inconclusive [inhibitor, partial curve] | 
CCOC(=O)Cn1c(-c2ccccc2)nc2ccccc2c1=O | inconclusive [inhibitor, full curve, poor fit] | 
Nc1nnc(SCC(=O)OCC(=O)c2ccccc2Br)s1 | inconclusive [inhibitor, full curve, poor fit] | 
O=C(Nc1sc2c(c1C(=O)NC1CCCCC1)CCC2)c1ccco1 | inconclusive [inhibitor, partial curve] | 
Cc1ccc(S(=O)(=O)CCC(=O)c2ccc(O)cc2O)cc1 | active: 0.447 µM | 
CC(C)CC(=O)Nc1ccc(S(=O)(=O)NCc2ccco2)cc1 | inconclusive [inhibitor, full curve] | 
O=C(Nc1ccccc1)[C@@H]1[C@@H]2C(=O)N(c3ccc(F)cc3)C(=O)[C@@H]2[C@H]2C=CC=NN21 | inconclusive [inhibitor, full curve] | 
O=C(NCc1ccco1)c1ccc(-c2csnn2)cc1 | inconclusive [inhibitor, partial curve] | 
Cc1ccc(-c2nc3ccccc3s2)cc1NC(=S)NC(=O)/C=C/c1ccco1 | inconclusive [inhibitor, single point] | 
CC(C)c1ccc(NNC(=O)C2CCC2)cc1 | inconclusive [inhibitor, partial curve] | 
